# Over roughly 16,000 sequences, “Z-score” has its median near -0.37; the highest 2% begin near 3.2. The list shows a part of the results.
# Tested on: RBM10 RRM1-ZnF (GST-tagged construct)
# Experiment: RNAcompete 7-mer binding Z-score; higher = stronger binding preference
# Method in brief: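 A designed pool of 241 399 RNAs, each up to 41 nt and transcribed from microarray-derived DNA templates, was used at 1.5 nmol with 20 pmol of GST-tagged RBM10 constructs. The mixture, in 1 ml Hepes pH 7.8 buffer with KCl, NaCl, glycerol, DTT, BSA and glutathione Sepharose beads, was held 30 min at 4°C and then washed four times for 2 min at 4°C. Bound RNA was read out by microarray hybridisation, and enrichment of each heptamer motif was scored as a one-sided Z-score over the probes carrying it.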
row,Sequence,RNAcompete 7-mer binding Z-score
1,CGGUCCU,-0.574
2,CCGAUCU,-0.954
3,GCAUGAC,-0.262
4,CAGGACG,1.06
5,CCGCUGU,-0.707
6,GCUCCAA,-0.409
7,CGCCUAG,-0.565
8,CAUUCCU,-0.854
9,UGCAAUG,0.0235
10,GUCUUAU,-0.818
11,UAUCUGU,-0.636
12,UCCCUUA,-0.86
13,AUAGCCU,-0.724
14,CACUAUG,-0.357
15,CUGACGU,-0.48
16,AAGAUUG,0.111
17,AGGAUCA,0.352
18,AGACAAU,-0.318
19,GUAGGGU,4.46
20,GGUUUAC,0.264
21,GUAUUAU,-0.0999
22,AAUCGGG,1.73
23,CUUCAGC,-0.763
24,CGCAUCG,-0.412
25,AUACACC,-0.795

row,Sequence,RNAcompete 7-mer binding Z-score
1,ACGGAAA,0.927
2,GGUUGCA,0.946
3,AUCGUGG,0.982
4,CUCUCGC,-0.668
5,UGGAGAC,1.72
6,GAUGUGG,3.15
7,UAGCUCA,-0.581
8,CCUACCG,-0.737
9,GGAGCUA,1.22
10,UAGGCGG,1.58
11,AGCAAUC,-0.435
12,CAUUUGG,-0.292
13,UGGGCGC,1.16
14,UUUGUGA,-0.383
15,ACUAGUU,-0.535
16,CUCACGC,-0.493
17,CUGUAUA,-0.707
18,GAUGUUG,0.93
19,GACAUCG,-0.282
20,AUCAUCC,-0.74
21,UCAGUCC,-0.711
22,AGAACAC,-0.581
23,UUGGAUA,0.755
24,GUGAGAU,0.823
25,CGAUCUC,-0.746

row,Sequence,RNAcompete 7-mer binding Z-score
1,CCGGGAC,0.287
2,CUGCAAC,-0.626
3,GAGGCGG,1.93
4,AGGCUAC,-0.24
5,CCGACAU,-0.834
6,CAGGGGC,1.55
7,UUGUGGA,1.18
8,CGUGCUA,-0.62
9,CAGUGCC,-0.431
10,CCGCCAC,-0.357
11,GGCGCGU,0.488
12,UCGAAAA,-0.269
13,UUAAGUC,-0.694
14,CGAUUUU,-0.912
15,GCCCCAA,-0.516
16,CUCACAC,-0.539
17,AUAUUAG,-0.00246
18,ACUUACG,-0.73
19,CCCGUCA,-0.62
20,GUUUUUG,0.196
21,UGCUGCA,-0.292
22,GUAUAUG,0.28
23,AGUGUAU,0.417
24,CAUCACA,-0.694
25,GAAUGUU,0.108

row,Sequence,RNAcompete 7-mer binding Z-score
1,CAUUAGU,-0.464
2,CAUCCUU,-0.867
3,AAAGGAC,2.39
4,UUCCUGU,-0.75
5,AGUCUCU,-0.613
6,CGUCCUA,-0.824
7,CGGCUCU,-0.639
8,AGUUGGG,2.89
9,UAAGCCU,-0.707
10,GACGGCU,-0.227
11,GGUGCCG,1.01
12,UCUUGCA,-1.02
13,GCAUAUG,0.257
14,UUUAUGC,-0.727
15,AACCGCC,-0.74
16,GGGUUGU,2.38
17,CCAGUUC,-0.717
18,ACGGACC,-0.106
19,UUACCUG,-0.763
20,CCUGGCU,-0.529
21,GUUCGGU,0.0333
22,CACGCUC,-0.578
23,UCUCGAA,-0.629
24,CCCAAUG,-0.662
25,GCUGAUG,0.54

# Reference: the supplement of paper PMC5499739
